Results as given in the supplement of paper PMC4967469.
A lower IC50 marks a more sensitive line; fits outside the tested doses are given as limits. The AUC spans the tested range (256-fold, ending at the top dose) of the same fit: 1 means no effect, lower means more sensitive. For some of these results: Any top dose called inferred was derived from the fitted curves, not read from the paper.

Columns and labels:
Test in all cases: Viability of human cancer cell lines after 72 h of drug (GDSC screen)
[1] = compound: CC(=O)Nc1nc(C)c(-c2ccc(Cl)c(S(=O)(=O)NCCO)c2)s1 [PIK-93]; conditions: top dose 20 µM
Description: (§1)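 Human cancer cell lines in 384-well plates, medium with 10% serum, drug for 72 h over a 256-fold dose range (nine 2-fold or five 4-fold steps up to the top dose). Adherent lines were fixed and stained with the nucleic acid dye Syto60, suspension lines read with resazurin; signal relative to control wells, capped at 0 and 100%. One two-parameter sigmoid per drug and line, fitted in a mixed model over all curves with the slope shared within a line.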

[2] = compound: O=C(/C=C/c1ccccc1)NC(NC(=S)Nc1cccc2cccnc12)C(Cl)(Cl)Cl [Salubrinal]; conditions: top dose 16 µM; top dose inferred
Description: as §1

[3] = compound: COc1cc2ncn(-c3cc(OCc4ccccc4C(F)(F)F)c(C(N)=O)s3)c2cc1OC [GW843682X]; conditions: top dose 0.256 µM
Description: as §1

[4] = compound: Cn1cc(/C=C2\C(=O)Nc3cccnc32)c2ccccc21 [GW 441756]; conditions: top dose 2 µM; top dose inferred
Description: as §1

[5] = compound: CC1(C)CCC(c2ccc(Cl)cc2)=C(CN2CCN(c3ccc(C(=O)NS(=O)(=O)c4ccc(N[C@H](CCN5CCOCC5)CSc5ccccc5)c(S(=O)(=O)C(F)(F)F)c4)cc3)CC2)C1 [ABT-263]; conditions: top dose 2 µM; top dose inferred
Description: as §1

[6] = compound: COc1cc(/C=C/C(=O)N2CCC=CC2=O)cc(OC)c1OC [piperlongumine]; conditions: top dose 10 µM
Description: as §1

Cell Line	AUC [1]	IC50 [1]	AUC [2]	IC50 [2]	AUC [3]	IC50 [3]	AUC [4]	IC50 [4]	AUC [5]	IC50 [5]	AUC [6]	IC50 [6]
HCC-33 (small cell lung carcinoma, adherent)	0.75	6620 nM	0.953	> 16000 nM	0.808	135 nM						
TALL-1 (T-cell lymphoblastic leukaemia, suspension)	0.933	> 20000 nM	0.937	> 16000 nM	0.469	13.2 nM						
KP-N-RT-BM-1 (neuroblastoma, semi-adherent)					0.754	111 nM						
D-392MG (glioma, adherent)	0.904	> 20000 nM	0.919	> 16000 nM			0.934	> 2000 nM	0.98	> 2000 nM	0.793	6510 nM
CAL-148 (breast, suspension)	0.72	4950 nM	0.928	> 16000 nM	0.718	62.7 nM						
KALS-1 (glioma, adherent)	0.792	13100 nM	0.951	> 16000 nM	0.576	27.9 nM					0.756	4640 nM
NCI-H2196 (small cell lung carcinoma, adherent)	0.822	12500 nM	0.971	> 16000 nM	0.926	> 256 nM						
IA-LM (large cell lung carcinoma, adherent)	0.953	> 20000 nM			0.461	12.3 nM	0.974	> 2000 nM	0.931	> 2000 nM	0.911	> 10000 nM
HCE-4 (oesophagus, adherent)	0.991	> 20000 nM			0.502	16.2 nM					0.746	2790 nM
TK (B-cell lymphoma, suspension)	0.738	5560 nM	0.888	15300 nM			0.988	> 2000 nM	0.806	914 nM	0.82	5110 nM
EHEB (lymphoid neoplasm, suspension)					0.912	> 256 nM	0.953	> 2000 nM	0.637	356 nM	0.79	6920 nM
RC-K8 (B-cell lymphoma, suspension)	0.858	13100 nM	0.958	> 16000 nM			0.993	> 2000 nM	0.723	485 nM	0.984	> 10000 nM
KARPAS-620 (haematopoietic neoplasm, suspension)	0.329	451 nM			0.261	3.75 nM	0.988	> 2000 nM	0.39	65.5 nM	0.796	3940 nM
A704 (kidney, adherent)	0.904	> 20000 nM			0.951	> 256 nM	0.949	> 2000 nM	0.702	452 nM	0.805	4870 nM
JSC-1 (B-cell lymphoma, suspension)	0.449	912 nM			0.464	12.8 nM	0.987	> 2000 nM	0.987	> 2000 nM		
KP-N-YS (neuroblastoma, adherent)	0.655	3590 nM	0.797	8880 nM	0.498	15.8 nM						
SU-DHL-1 (anaplastic large cell lymphoma, suspension)	0.933	16700 nM	0.985	> 16000 nM	0.805	89 nM						
HCC2998 (large intestine, adherent)	0.931	> 20000 nM	0.864	13300 nM			0.971	> 2000 nM			0.75	3170 nM
TE-11 (oesophagus, adherent)	0.966	> 20000 nM			0.43	10.5 nM	0.985	> 2000 nM	0.919	> 2000 nM	0.873	8160 nM
NB12 (neuroblastoma, adherent)	0.901	> 20000 nM	0.956	> 16000 nM			0.976	> 2000 nM	0.605	267 nM	0.771	5200 nM

Cell Line	AUC [1]	IC50 [1]	AUC [2]	IC50 [2]	AUC [3]	IC50 [3]	AUC [4]	IC50 [4]	AUC [5]	IC50 [5]	AUC [6]	IC50 [6]
VAL (B-cell lymphoma, suspension)	0.645	3160 nM	0.835	10600 nM			0.75	657 nM	0.631	288 nM	0.815	5520 nM
RS4-11 (leukaemia, suspension)	0.362	540 nM	0.888	15400 nM	0.426	10.2 nM					0.823	5260 nM
UACC-812 (breast, adherent)	0.962	> 20000 nM	0.986	> 16000 nM								
JURL-MK1 (chronic myeloid leukaemia, suspension)	0.75	6510 nM	0.963	> 16000 nM			0.987	> 2000 nM	0.668	367 nM	0.926	> 10000 nM
SIG-M5 (acute myeloid leukaemia, suspension)	0.162	174 nM	0.87	8970 nM	0.559	22.3 nM						
D-542MG (glioma, adherent)	0.735	6930 nM	0.848	> 16000 nM			0.915	> 2000 nM	0.922	> 2000 nM	0.798	6020 nM
NK-92MI (lymphoid neoplasm, suspension)			0.896	> 16000 nM	0.734	70.2 nM						
TGBC24TKB (biliary tract, adherent)	0.904	> 20000 nM			0.572	24.8 nM					0.969	> 10000 nM
NCI-H2171 (small cell lung carcinoma, suspension)	0.605	2330 nM	0.971	> 16000 nM	0.971	> 256 nM						
K-562 (chronic myeloid leukaemia, suspension)					0.662	44.5 nM			0.98	> 2000 nM		
HCC1599 (breast, suspension)	0.401	641 nM	0.846	14300 nM	0.538	20.6 nM						
IST-MES1 (mesothelioma, adherent)	0.912	> 20000 nM	0.933	> 16000 nM	0.837	173 nM					0.818	5690 nM
TE-441-T (rhabdomyosarcoma, adherent)	0.835	12500 nM	0.798	7290 nM	0.898	> 256 nM						
BC-3 (B-cell lymphoma, suspension)	0.576	1960 nM	0.871	12300 nM	0.876	207 nM						
ECC12 (stomach, suspension)			0.888	> 16000 nM								
SNU-C2B (large intestine, adherent)	0.868	> 20000 nM			0.437	10.2 nM	0.973	> 2000 nM	0.963	> 2000 nM	0.7	2750 nM
KOPN-8 (B-cell leukaemia, suspension)	0.33	453 nM			0.584	26.3 nM	0.984	> 2000 nM	0.654	311 nM	0.666	1680 nM
KLE (endometrium, adherent)	0.852	> 20000 nM			0.76	142 nM	0.938	> 2000 nM	0.953	> 2000 nM	0.817	> 10000 nM
NCI-H128 (small cell lung carcinoma, suspension)			0.936	> 16000 nM	0.973	> 256 nM						
SCC-3 (B-cell lymphoma, suspension)	0.951	> 20000 nM	0.949	16000 nM	0.701	49.2 nM						

Cell Line	AUC [1]	IC50 [1]	AUC [2]	IC50 [2]	AUC [3]	IC50 [3]	AUC [4]	IC50 [4]	AUC [5]	IC50 [5]	AUC [6]	IC50 [6]
EW-12 (Ewing sarcoma, suspension)			0.974	> 16000 nM	0.975	> 256 nM						
SW872 (soft tissue, adherent)	0.878	17000 nM	0.952	> 16000 nM	0.594	28.1 nM					0.751	3020 nM
SW982 (soft tissue, adherent)	0.749	6640 nM			0.573	25.6 nM	0.985	> 2000 nM	0.985	> 2000 nM	0.661	1780 nM
CP67-MEL (melanoma, adherent)					0.806	> 256 nM						
CHSA8926 (chondrosarcoma, adherent)	0.759	9870 nM					0.925	> 2000 nM	0.911	> 2000 nM	0.788	6540 nM
NCI-H1944 (lung adenocarcinoma, adherent)	0.76	7500 nM					0.809	1130 nM	0.956	> 2000 nM	0.921	> 10000 nM
SCC-9 (head and neck, adherent)	0.706	5670 nM					0.979	> 2000 nM	0.916	> 2000 nM	0.82	7880 nM
LU-135 (small cell lung carcinoma, suspension)	0.739	5200 nM					0.982	> 2000 nM	0.442	89.5 nM	0.813	4280 nM
NCI-H358 (lung adenocarcinoma, adherent)	0.808	11800 nM					0.979	> 2000 nM	0.953	> 2000 nM	0.833	7480 nM
NCI-H2227 (small cell lung carcinoma, semi-adherent)	0.72	5750 nM	0.961	> 16000 nM			0.957	> 2000 nM	0.768	847 nM	0.938	> 10000 nM
EN (endometrium, adherent)	0.851	> 20000 nM					0.919	> 2000 nM	0.96	> 2000 nM	0.945	> 10000 nM
CAL-33 (head and neck, adherent)	0.669	3700 nM					0.866	1780 nM	0.865	1770 nM	0.787	4340 nM
NCI-H838 (lung adenocarcinoma, adherent)	0.914	> 20000 nM					0.87	2000 nM	0.985	> 2000 nM	0.807	5370 nM
NCI-H748 (small cell lung carcinoma, suspension)	0.906	> 20000 nM	0.919	> 16000 nM	0.888	> 256 nM						
EFO-27 (ovary, adherent)	0.905	> 20000 nM					0.967	> 2000 nM	0.96	> 2000 nM	0.794	5970 nM
CAL-51 (breast, adherent)	0.989	> 20000 nM					0.991	> 2000 nM	0.99	> 2000 nM	0.576	981 nM
DMS-273 (small cell lung carcinoma, adherent)	0.467	1010 nM					0.971	> 2000 nM	0.97	> 2000 nM	0.662	1820 nM
H2869 (mesothelioma, adherent)	0.846	> 20000 nM					0.89	> 2000 nM	0.925	> 2000 nM	0.813	7070 nM
OVCAR-5 (ovary, adherent)	0.853	> 20000 nM					0.825	1540 nM	0.903	> 2000 nM	0.743	3660 nM
